This note sets out measurements from publication PMC12820563, “FoxP3 forms a head-to-head dimer in vivo and stabilizes its multimerization on adjacent microsatellites”.

The other results are listed elsewhere or left out.

The target in the test is T1, MBP-FoxP1dN (Mus musculus, UniProt P58462 326-579).
T1 sequence: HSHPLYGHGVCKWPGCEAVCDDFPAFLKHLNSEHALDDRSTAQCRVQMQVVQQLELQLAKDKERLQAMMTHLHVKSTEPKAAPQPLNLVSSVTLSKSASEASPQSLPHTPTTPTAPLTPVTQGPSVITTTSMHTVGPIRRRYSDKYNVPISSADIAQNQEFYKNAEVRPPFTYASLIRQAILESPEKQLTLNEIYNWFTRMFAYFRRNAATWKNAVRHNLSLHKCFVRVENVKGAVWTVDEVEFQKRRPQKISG
The test can be described thus: PD-seq (MBP pull-down with sequencing); 20 mM Tris-HCl pH 7.5, 100 mM NaCl, 1.5 mM MgCl2, 0.4 uM protein, 0.1 uM dsDNA library, 30 min, room temperature, amylose pull-down; high values mean tight binding. Conditions: protein: recombinant; tags: His6-MBP; chain copies: 2; dsDNA, one strand shown. In outline:
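E. coli-expressed mouse FoxP3 or FoxP1 fragment, N-terminus removed and tagged with His6-MBP, was used at 0.4 µM against 0.1 µM of a Klenow-filled degenerate double-stranded DNA library. After 30 min at room temperature in Tris pH 7.5 buffer with NaCl and MgCl2, complexes were pulled down on amylose resin and washed three times. Binding is pull-down over input reads-per-million enrichment from pooled replicates of the proteinase K-released, PCR-barcoded, Illumina-sequenced DNA.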
Take “GATGATTGTTCTCCCAGCTGATGAATTGTGGTTTTCGAGTAAACAAATTTTCCTAATCTTTCTGTTCAAGCGCCATCTAC”: the binding signal was 1.28 RPM ratio (pull-down/input).
For “GATGATTGTTCTCCCAGCTGATGAATTTTATGGGTCGAGTAAACAAATTTTCCTAATCTTTCTGTTCAAGCGCCATCTAC”, the binding signal is 0.846 RPM ratio (pull-down/input).
Next, “GATGATTGTTCTCCCAGCTGATGAATTGCATCAGTCGAGTAAACAAATTTTCCTAATCTTTCTGTTCAAGCGCCATCTAC”: 1.28 RPM ratio (pull-down/input); “GATGATTGTTCTCCCAGCTGATGAATTCGGCGGTTCGAGTAAACAAATTTTCCTAATCTTTCTGTTCAAGCGCCATCTAC”: 0.767 RPM ratio (pull-down/input); “GATGATTGTTCTCCCAGCTGATGAATTCAAGAACTCGAGTAAACAAATTTTCCTAATCTTTCTGTTCAAGCGCCATCTAC”: 0.816 RPM ratio (pull-down/input).
Next, “GATGATTGTTCTCCCAGCTGATGAATTAAAGCAATCGAGTAAACAAATTTTCCTAATCTTTCTGTTCAAGCGCCATCTAC”: 1.32 RPM ratio (pull-down/input); “GATGATTGTTCTCCCAGCTGATGAATTCAAGTCTTCGAGTAAACAAATTTTCCTAATCTTTCTGTTCAAGCGCCATCTAC”: 0.878 RPM ratio (pull-down/input); “GATGATTGTTCTCCCAGCTGATGAATTCCAGCCCTCGAGTAAACAAATTTTCCTAATCTTTCTGTTCAAGCGCCATCTAC”: 0.686 RPM ratio (pull-down/input).
Consider “GATGATTGTTCTCCCAGCTGATGAATTCGAGCTTTCGAGTAAACAAATTTTCCTAATCTTTCTGTTCAAGCGCCATCTAC”, for which the binding signal was 0.841 RPM ratio (pull-down/input).
In the case of “GATGATTGTTCTCCCAGCTGATGAATTTATGGAATCGAGTAAACAAATTTTCCTAATCTTTCTGTTCAAGCGCCATCTAC” it was 1.22 RPM ratio (pull-down/input); in that of “GATGATTGTTCTCCCAGCTGATGAATTGAGACTGTCGAGTAAACAAATTTTCCTAATCTTTCTGTTCAAGCGCCATCTAC”, 0.872 RPM ratio (pull-down/input).
For the sequence “GATGATTGTTCTCCCAGCTGATGAATTTCCCTCATCGAGTAAACAAATTTTCCTAATCTTTCTGTTCAAGCGCCATCTAC”, the binding signal is 0.899 RPM ratio (pull-down/input).
For the sequence “GATGATTGTTCTCCCAGCTGATGAATTCGCAATCTCGAGTAAACAAATTTTCCTAATCTTTCTGTTCAAGCGCCATCTAC”, the binding signal is 0.94 RPM ratio (pull-down/input).
Regarding “GATGATTGTTCTCCCAGCTGATGAATTGCCTTCATCGAGTAAACAAATTTTCCTAATCTTTCTGTTCAAGCGCCATCTAC”, the binding signal was 1.01 RPM ratio (pull-down/input).
Regarding “GATGATTGTTCTCCCAGCTGATGAATTTTGCCCATCGAGTAAACAAATTTTCCTAATCTTTCTGTTCAAGCGCCATCTAC”, the binding signal was 0.919 RPM ratio (pull-down/input).
Next, “GATGATTGTTCTCCCAGCTGATGAATTAAGACATTCGAGTAAACAAATTTTCCTAATCTTTCTGTTCAAGCGCCATCTAC”: 0.975 RPM ratio (pull-down/input); “GATGATTGTTCTCCCAGCTGATGAATTTGGTGGATCGAGTAAACAAATTTTCCTAATCTTTCTGTTCAAGCGCCATCTAC”: 0.88 RPM ratio (pull-down/input); “GATGATTGTTCTCCCAGCTGATGAATTAATTCTGTCGAGTAAACAAATTTTCCTAATCTTTCTGTTCAAGCGCCATCTAC”: 0.921 RPM ratio (pull-down/input).
With “GATGATTGTTCTCCCAGCTGATGAATTCTCAGTGTCGAGTAAACAAATTTTCCTAATCTTTCTGTTCAAGCGCCATCTAC”, the binding signal is 0.897 RPM ratio (pull-down/input).
Regarding “GATGATTGTTCTCCCAGCTGATGAATTGCGCGCCTCGAGTAAACAAATTTTCCTAATCTTTCTGTTCAAGCGCCATCTAC”, the binding signal is 1.08 RPM ratio (pull-down/input).
In the case of “GATGATTGTTCTCCCAGCTGATGAATTCTTTGTATCGAGTAAACAAATTTTCCTAATCTTTCTGTTCAAGCGCCATCTAC”, the binding signal was 1.21 RPM ratio (pull-down/input).
In the case of “GATGATTGTTCTCCCAGCTGATGAATTGTCTCCATCGAGTAAACAAATTTTCCTAATCTTTCTGTTCAAGCGCCATCTAC” it was 1.11 RPM ratio (pull-down/input).
In the case of “GATGATTGTTCTCCCAGCTGATGAATTTGGCTGGTCGAGTAAACAAATTTTCCTAATCTTTCTGTTCAAGCGCCATCTAC” it was 0.811 RPM ratio (pull-down/input); in that of “GATGATTGTTCTCCCAGCTGATGAATTAGGCTCTTCGAGTAAACAAATTTTCCTAATCTTTCTGTTCAAGCGCCATCTAC”, 0.827 RPM ratio (pull-down/input); in that of “GATGATTGTTCTCCCAGCTGATGAATTATTTCTTTCGAGTAAACAAATTTTCCTAATCTTTCTGTTCAAGCGCCATCTAC”, 1.17 RPM ratio (pull-down/input).
In the case of “GATGATTGTTCTCCCAGCTGATGAATTCTACGCTTCGAGTAAACAAATTTTCCTAATCTTTCTGTTCAAGCGCCATCTAC” it was 0.86 RPM ratio (pull-down/input).
As for “GATGATTGTTCTCCCAGCTGATGAATTATACTGTTCGAGTAAACAAATTTTCCTAATCTTTCTGTTCAAGCGCCATCTAC”, the binding signal was 1.01 RPM ratio (pull-down/input).
Regarding “GATGATTGTTCTCCCAGCTGATGAATTAATTTCCTCGAGTAAACAAATTTTCCTAATCTTTCTGTTCAAGCGCCATCTAC”, the binding signal is 0.884 RPM ratio (pull-down/input).
Next, “GATGATTGTTCTCCCAGCTGATGAATTACATCAATCGAGTAAACAAATTTTCCTAATCTTTCTGTTCAAGCGCCATCTAC”: 1.33 RPM ratio (pull-down/input); “GATGATTGTTCTCCCAGCTGATGAATTCGAGCACTCGAGTAAACAAATTTTCCTAATCTTTCTGTTCAAGCGCCATCTAC”: 0.796 RPM ratio (pull-down/input).
In the case of “GATGATTGTTCTCCCAGCTGATGAATTCCCCGTCTCGAGTAAACAAATTTTCCTAATCTTTCTGTTCAAGCGCCATCTAC”, the binding signal is 0.798 RPM ratio (pull-down/input).
